In PubChem BioAssay AID1347417 (National Center for Advancing Translational Sciences (NCATS), 2020):
Out of some 120,000 compounds screened, about 5,300 (4.4%) were called active. Inconclusive means that the source gave no clear call. Such entries were picked first, then a sample of the others. Calls follow the shape of the dose curve; as a rule, active = well fitted inhibition curve with a large enough effect; inconclusive = small, poorly fitted or top-dose-only effect; inactive = no such curve, though single readings can be large or run the other way. Where the call is inconclusive, the potency comes from a doubtful curve fit.

Experiment: qHTS Primary assay for Inhibitors of Plasmodium falciparum Dd2 growth in vitro; also: nearly all actives have a fitted effect of over 65% in size;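 as to activity, negative = inhibition: plate controls were DMSO vehicle for no effect and reference drug for full effect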
Conditions: P. falciparum Dd2 growth, SYBR Green, 72 h; activity, negative = inhibition: at 28.9 µM (top of the series) unless noted; series mostly up to 28.9 µM
Summary of the method: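 Infected erythrocytes (Dd2, 0.3% parasitemia, 2.5% hematocrit final) are added to compound in RPMI-1640/Albumax II medium, grown 72 h at 37C in low oxygen, then lysed with saponin/Triton-X containing SYBR Green and read by fluorescence.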
Potency is read from the fitted curve at half-maximal effect; tags tell the direction and shape of the fitted curve.

| SMILES | Potency | activity, negative = inhibition |
| --- | --- | --- |
| CCCCn1nc(NC(=O)c2cccc(Cl)c2)c2cc3cccc(C)c3nc21 | inconclusive: 11.2 µM [inhibitor, partial curve, poor fit] | – |
| COC(=O)c1ccc2c(c1)N(Cc1ccc(Cl)cc1)C(=O)c1ccccc1S2 | inactive | – |
| Fc1ccc2c(c1)nc1n2[C@@H](CN(Cc2ccccn2)Cc2ccccn2)COC1 | inconclusive: 25.1 µM [inhibitor, single point] | – |
| CCN1CCN(Cc2cn(-c3ccccc3F)nc2-c2cc(C)sc2C)CC1 | active: 11.2 µM | – |
| COC1C(=O)N(C2CCN(S(=O)(=O)Cc3ccccc3F)CC2)C12CCOCC2 (stereo not drawn) | inconclusive: 10 µM [inhibitor, partial curve] | – |
| COc1ccc2nc([C@H]3CCN(Cc4cccc(Cl)c4)C3)[nH]c2c1 | inconclusive: 2.82 µM [inhibitor, single point] | – |
| COc1ccc(-c2cc(N3CCC(NC(=O)c4ccc(OC)cc4C)C3)n[nH]2)cc1 (stereo not drawn) | inactive | – |
| COCCCNC(=O)CCc1c(C)nc2nc(-c3cc(OC)cc(OC)c3)nn2c1C | inconclusive: 10 µM [inhibitor, partial curve] | – |
| COc1cc2c(cc1Oc1ccccc1)NC(=O)C21CCN(C(=O)c2ccnn2C)CC1 | inactive | – |
| Cc1ccc(-n2ncc(C(=O)NCCN3CCCC3)c2C2CCN(C(=O)OC(C)(C)C)CC2)cc1C | inactive | – |
| Cc1ccc(C2Cn3nnc(C(=O)N4CCC(C(=O)NC5CCCCC5)CC4)c3CO2)cc1 (stereo not drawn) | inactive | – |
| CCCS(=O)(=O)Nc1ccc(=O)n2c1[C@@H]1C[C@@H](CN(C(=O)c3ccc(F)cc3)C1)C2 | inconclusive: 2.24 µM [inhibitor, full curve, poor fit] | – |
| Cc1ccc2nc([C@H]3CCN(C(=O)Nc4ccccc4)C3)[nH]c2c1 | inconclusive: 31.6 µM [inhibitor, single point] | – |
| Cc1nn2c(c1-c1ccccc1Oc1ccccc1)N(C(=O)Cc1ccccc1)CCC2 | inconclusive: 3.55 µM [inhibitor, partial curve, poor fit] | – |
| CCN(CC)C(=O)CCc1c(C)nn(-c2ccc(F)cc2)c1Oc1ccccc1OC | inactive | – |
| O=C1COc2ccc(-c3cccc(OC(F)(F)F)c3)nc2CN1 | inactive | – |
| O=C(Nc1ccc(F)c(F)c1)c1cc2n(n1)CC(c1ccc(Br)cc1)OC2 (stereo not drawn) | inactive | – |
| CCCS(=O)(=O)c1nc(S(=O)(=O)c2ccc(C)cc2)c(N(C)Cc2ccccc2)s1 | inconclusive: 12.6 µM [inhibitor, partial curve, poor fit] | – |
| O=C(Cc1ccsc1)NCc1nnc2ccc(-c3ccc(Cl)cc3)nn12 | inactive | – |
| COc1ccc(CN2CCC(CO)(CN3CCCC3)CC2)c(OC)c1C | inactive | – |
| O=C(Cc1ccccc1)N1CCCC2(CC(c3cccc(C(F)(F)F)c3)=NO2)C1 (stereo not drawn) | inconclusive: 1 µM [inhibitor, full curve] | – |
| O=C(O)C[C@@H]1CCN(S(=O)(=O)c2ccc(F)cc2)C[C@@H]1CC1=NCCc2cc(F)ccc21 | inconclusive: 17.8 µM [inhibitor, single point] | – |
| Cn1cc(CN2C[C@H](C(=O)Nc3ccc(F)cc3)C[C@H]2c2cccc(C(F)(F)F)c2)cn1 | inconclusive: 17.8 µM [inhibitor, single point] | – |

| SMILES | Potency | activity, negative = inhibition |
| --- | --- | --- |
| Cc1ccc(C)c(NC(=O)CN(C)S(=O)(=O)c2ccc3c(c2)CCC(=O)N3)c1 | inconclusive: 2.82 µM [inhibitor, partial curve, poor fit] | – |
| CO[C@@H]1CO[C@H]2[C@@H]1OC[C@@H]2NC(=O)C1CCC1 | inactive | – |
| CN1Cc2ncnc(N3CCN(Cc4ccccc4)CC3)c2CN(c2ccc([N+](=O)[O-])cc2)C1=O | inactive | – |
| Cc1c(C(=O)N(C)C)sc2c1c(=O)n(-c1ccc(Cl)cc1)c(=O)n2Cc1ccccc1F | inactive | – |
| O=c1ncn(Cc2ccccc2)c2ccc(-c3ccc(F)cc3F)nc12 | inconclusive: 12.6 µM [inhibitor, partial curve] | – |
| CC(C)NC(=O)C[C@@H]1CCNC[C@@H]1Cc1cc(CSc2ccccc2)on1 | inconclusive: 11.2 µM [inhibitor, partial curve] | – |
| Cc1cc(C(=O)N2CCN(c3cccc(C)c3C)CC2)c2c(C)nn(-c3ccccc3)c2n1 | – | inconclusive: -104% [inhibitor] [at 5.79 µM] |
| CC(C)COc1cc(=O)n2c(c1C(=O)N1CCN(c3ccccn3)CC1)CCCCC2 | inactive | – |
| COc1ccc(NC(=O)c2cn(-c3ccccc3)nc2-c2ccc(C)cc2)cc1 | inconclusive: 17.8 µM [inhibitor, single point] | – |
| COc1cccc(-c2nc(-c3c(C)noc3C)cc3c2cc(C)n3CCN(C)C)c1 | inconclusive: 0.631 µM [inhibitor, full curve, poor fit] | – |
| COc1cccc([S+](=O)([O-])N2CCCC3(C2)C(=NC2CCCC2)NC(=O)N3c2cc(F)cc(F)c2)c1 (stereo not drawn) | inconclusive: 8.91 µM [inhibitor, single point] | – |
| CCOc1ccccc1-n1cc2c(c1-c1ccc(OC)cc1)c(=O)n(C)c(=O)n2C | inconclusive: 12.6 µM [inhibitor, partial curve] | – |
| Cc1ccsc1C(=O)N1CCCC(c2nnnn2C)C1 (stereo not drawn) | inactive | – |
| COC[C@@H]1CN(C(=O)c2cn3ccccc3n2)C[C@H]1c1ccncc1 | inactive | – |
| Cc1ccc(Cn2nnc(C(=O)Nc3ccc(F)c(F)c3)c2N)cc1 | active: 0.891 µM | – |
| CCCn1ncc(-c2nc(-c3ccncc3)no2)c1C | inconclusive: 20 µM [inhibitor, single point] | – |
| CC(=O)N1CCCC(c2[nH]ccc2C(=O)N2CCN(c3ccccc3)CC2)C1 (stereo not drawn) | inconclusive: 7.08 µM [inhibitor, partial curve, poor fit] | – |
| CCOC(=O)N1CCc2c(sc3c2c(=O)n(CCc2ccccc2)c(=O)n3Cc2ccc(F)cc2)C1 | inconclusive: 3.16 µM [inhibitor, full curve, poor fit] | – |
| O=C(CSc1nc(-c2ccccc2)no1)N1CCCCC1 | inconclusive: 1 µM [inhibitor, single point] | – |
| Cc1ccccc1-c1nn2c(=O)cc(CN3CCN(C(=O)c4ccc(C(C)(C)C)cc4)CC3)nc2s1 | inconclusive: 1.58 µM [inhibitor, partial curve, poor fit] | – |
| COc1cc(NC(=O)CSc2nc3nc(C)c(Cc4ccc(C)cc4)c(C)n3n2)cc(OC)c1 | inconclusive: 0.0631 µM [inhibitor, full curve] | – |
| CCN1c2cc(C(=O)NCc3ccccc3)ccc2C(=O)N2CCCCC21 (stereo not drawn) | inactive | – |
| Cn1cc(CN2C[C@@H]3OCC(=O)N[C@@H]3C2)c2ccccc21 | inactive | – |

| SMILES | Potency | activity, negative = inhibition |
| --- | --- | --- |
| Cc1cc(=O)n(CC(=O)Nc2ccc(F)cc2)c(N2CCN(c3ccccc3)CC2)n1 | inconclusive: 12.6 µM [inhibitor, partial curve, poor fit] | – |
| CCN1c2cc(C(=O)Nc3ccccc3)ccc2C(=O)N2CCCC21 (stereo not drawn) | inconclusive: 8.91 µM [inhibitor, partial curve, poor fit] | – |
| COCCN1C(=O)[C@@H]2C[C@@H](CN2Cc2ccc3ccccc3n2)Oc2ccccc21 | inactive | – |
| CC(C)=CC(=O)N1CC[C@H](NC(=O)NC2CCCCC2)[C@H]1C(=O)N[C@H](Cc1c[nH]c2ccccc12)C(N)=O | inactive | – |
| COc1ccc(NC(=O)c2ccc3c(c2)CCN3S(=O)(=O)c2ccc(C)cc2)cc1Cl | active: 8.91 µM | – |
| Cc1c(Cl)cccc1NC(=O)CN1C(=O)COc2ccc(S(=O)(=O)Nc3ccccc3)cc21 | inconclusive: 7.94 µM [inhibitor, partial curve] | – |
| CCOc1ccc(C2=NC(c3cccs3)=Nc3ccc(C(C)C)cc3N2)cc1 | inconclusive: 17.8 µM [inhibitor, single point] | – |
| CC(C)Cc1cc(C[C@@H]2C[C@H](NC(=O)C(C)(C)C)C2(C)C)no1 | inconclusive: 15.8 µM [inhibitor, single point] | – |
| OCC1CNCCC12CCN(Cc1ccc3ccccc3c1)CC2 (stereo not drawn) | inconclusive: 12.6 µM [inhibitor, single point] | – |
| Cc1c(/C=C(\C#N)C(=O)Nc2cccc(Cl)c2)c2ccccc2n1Cc1ccccc1Cl | active: 3.16 µM | – |
| COc1cc(Cl)ccc1C(=O)N1CCC2(CC1)CC(O)CCO2 (stereo not drawn) | inactive | – |
| O=C1NCc2ccccc2CC12CCCN(Cc1c[nH]c3ccccc13)C2 (stereo not drawn) | inconclusive: 11.2 µM [inhibitor, partial curve] | – |
| CCN(CC)c1cc2c(cc1F)c(=O)c(S(=O)(=O)c1cc(C)ccc1C)cn2Cc1ccccc1 | inconclusive: 17.8 µM [inhibitor, single point] | – |
| CS(=O)(=O)Cc1ccc(-c2ccc(F)cc2C(F)(F)F)nc1 | inactive | – |
| COc1ccc(-c2nn(-c3ccccc3C)cc2CN(C)CCN2CCOCC2)cc1F | active: 11.2 µM | – |
| CSc1nccc(N2CCC3(CCCN(C(C)C)C3=O)C2)n1 (stereo not drawn) | inactive | – |
| CNC1CCc2nn(CC3CC3)c(=O)n2CC1 (stereo not drawn) | inactive | – |
| Cn1cc(CN2CCOC[C@H](Oc3ccc(S(C)(=O)=O)cc3)C2)c2ccccc21 | active: 10 µM | – |
| COCC1CN(C(=O)NC2CCCCC2)CC12CCNCC2 (stereo not drawn) | inactive | – |
| O=C(c1nccc2ccccc12)N1CCc2c(nc(-c3ccccc3)[nH]c2=O)C1 | inconclusive: 1.58 µM [inhibitor, partial curve, poor fit] | – |
| CC(C)NC(=O)C1CCC(=O)N1C1CCN(C(=O)c2ccc(C(C)C)cc2)CC1 (stereo not drawn) | inactive | – |
| CCCN1C(=O)CCc2cc(NC(=O)c3cccc(N(C)C)c3)ccc21 | inconclusive: 10 µM [inhibitor, single point] | – |
